{"source": "PubChem BioAssay (Tox21)", "key": {"[1]": {"assay": "qHTS assay to identify small molecule antagonists of the thyroid receptor (TR) signaling pathway - cell viability counter screen (AID 743064); also: nearly all actives have a fitted effect of over 50% in size; also: potency is read from the fitted curve at half-maximal effect; as to activity change, negative = cytotoxic: % is scaled to controls: 0 for no effect and ±100 for the full control effect", "settings": "GH3.TRE-Luc viability, CellTiter-Fluor, 24 h; activity change, negative = cytotoxic: at 70.3 µM (top of the series) unless noted", "summary_of_the_method": "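Same-well viability check: GH3.TRE-Luc cells stimulated with 1 nM T3 alongside test compound for 23.5 h, followed by CellTiter-Fluor fluorescence.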"}, "[2]": {"assay": "qHTS assay to identify small molecule antagonists of the thyroid receptor (TR) signaling pathway (AID 743065); also: nearly all actives have a fitted effect of over 55% in size; also: potency is read from the fitted curve at half-maximal effect; as to activity, negative = inhibition: % is scaled to controls: 0 for no effect and ±100 for the full control effect", "summary_of_the_method": "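Antagonism measured as loss of luciferase signal in GH3 cells stably carrying a TRE-luciferase reporter, co-treated with compound and T3 (1 nM final) for 23.5 h at 37 C. Viability was read in the same well by CellTiter-Fluor.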"}, "[3]": {"target": "Estrogen receptor (Homo sapiens) (UniProt P03372)", "sequence (P03372 whole entry, looked up)": "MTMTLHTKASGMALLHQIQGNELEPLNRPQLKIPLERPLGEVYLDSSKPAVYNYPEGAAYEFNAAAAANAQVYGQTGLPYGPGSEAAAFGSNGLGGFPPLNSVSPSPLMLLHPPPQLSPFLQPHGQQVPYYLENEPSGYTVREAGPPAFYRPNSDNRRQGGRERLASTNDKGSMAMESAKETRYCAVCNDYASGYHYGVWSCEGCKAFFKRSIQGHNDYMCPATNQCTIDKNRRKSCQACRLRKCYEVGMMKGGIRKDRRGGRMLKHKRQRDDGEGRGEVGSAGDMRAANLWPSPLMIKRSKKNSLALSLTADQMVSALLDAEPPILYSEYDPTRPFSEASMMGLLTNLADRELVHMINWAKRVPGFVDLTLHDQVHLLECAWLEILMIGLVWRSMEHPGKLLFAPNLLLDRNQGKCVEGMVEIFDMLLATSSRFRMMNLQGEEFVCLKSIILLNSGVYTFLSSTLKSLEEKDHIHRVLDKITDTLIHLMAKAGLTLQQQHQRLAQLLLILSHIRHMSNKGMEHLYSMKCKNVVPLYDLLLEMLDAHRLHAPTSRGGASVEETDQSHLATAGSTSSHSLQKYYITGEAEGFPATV", "assay": "qHTS assay to identify small molecule agonists of the estrogen receptor alpha (ER-alpha) signaling pathway (AID 743075; calls by dose curve; also: potency is read from the fitted curve at half-maximal effect)"}, "[4]": {"target": "Estrogen receptor (Homo sapiens) (UniProt P03372)", "assay": "qHTS assay to identify small molecule agonists of the estrogen receptor alpha (ER-alpha) signaling pathway using the BG1 cell line (AID 743079); also: nearly all actives have a fitted effect of over 20% in size; also: potency is read from the fitted curve at half-maximal effect; as to activation: % is scaled to controls: 0 for no effect and ±100 for the full control effect", "settings": "BG1Luc4E2 cells, ERE-luciferase agonist, 22 h; activation: at 70.3 µM (top of the series) unless noted"}, "[5]": {"assay": "qHTS assay to identify aromatase inhibitors - cell viability counter screen (AID 743084);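 also: cells stimulated with testosterone during compound exposure; nearly all actives have a fitted effect of over 55% in size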; also: potency is read from the fitted curve at half-maximal effect", "settings": "MCF-7 aro ERE viability, CellTiter-Fluor, 24 h; activity change, negative = cytotoxicity: at 70.3 µM (top of the series)"}, "[6]": {"assay": "qHTS assay to identify small molecule antagonists of the estrogen receptor alpha (ER-alpha) signaling pathway - cell viability counter screen (AID 743074; calls by dose curve; also: potency is read from the fitted curve at half-maximal effect; nearly all actives have a fitted effect of over 45% in size)"}, "[7]": {"assay": "qHTS assay to identify small molecule antagonists of the estrogen receptor alpha (ER-alpha) signaling pathway using the BG1 cell line - cell viability counter screen (AID 743081);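 also: compound given together with 17beta-estradiol as the ER stimulus; potency is read from the fitted curve at half-maximal effect; nearly all actives have a fitted effect of over 45% in size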"}, "[8]": {"target": "Estrogen receptor (Homo sapiens) (UniProt P03372)", "assay": "qHTS assay to identify small molecule antagonists of the estrogen receptor alpha (ER-alpha) signaling pathway (AID 743069; active = well fitted curve in the direction sought with a large enough effect in the signal ratio in the repeat runs, not every such curve was filed as active; inconclusive = weak or mixed curves, or effect the other way; inactive = no such curve, though single readings can be large or run the other way; the % refers to the signal ratio; also: % is scaled to controls: 0 for no effect and ±100 for the full control effect)", "settings": "HEK293 ER-alpha-UAS-bla, beta-lactamase ratio, antagonist mode; activity, negative = inhibition: at 69.4 µM (top of the series) unless noted", "summary_of_the_method": "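ER-alpha-UAS-bla GripTite HEK293 line; 2% charcoal-stripped FBS overnight; plated, 4 hr 37C/5% CO2; cpd in DMSO + 17beta-estradiol, 18 hr 37C; LiveBLAzer B/G FRET substrate 2 hr RT; fluorescence intensity.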"}, "[9]": {"assay": "qHTS assay to identify small molecule antagonists of the estrogen receptor alpha (ER-alpha) signaling pathway using the BG1 cell line (AID 743080; calls by dose curve; also: potency is read from the fitted curve at half-maximal effect; nearly all actives have a fitted effect of over 25% in size)", "settings": "BG1Luc4E2 ERE-luciferase antagonist mode, luminescence; activity change, negative = inhibition: at 70.3 µM (top of the series) unless noted", "summary_of_the_method": "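Quantitative HTS on the Tox21 10K library: BG1 cells with endogenous ER-alpha and ERE-luciferase reporter, 17beta-estradiol stimulation, 21.5 h compound exposure, luminescence endpoint with parallel fluorescence cytotoxicity counter-read.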"}}, "note": "The shares of active, inactive and inconclusive entries below differ from those in the screen. For some of these results: Potencies beside an inconclusive call are fits to weak or partial responses and may not hold up. Calls of active or inactive are those of the source. Unless noted, calls follow the shape of the dose curve; as a rule, active = well fitted curve in the direction sought with a large enough effect in the repeat runs; inconclusive = weak or mixed curves; inactive = no such curve, though single readings can be large; an effect the other way counts as inactive or inconclusive. Tags tell the direction and shape of the fitted curve or compound fluorescence and quenching."}
{"compound": "CCCCCCCC", "values": [{"measurement": "Potency", "setting": "[1]", "result": "inactive"}, {"measurement": "Potency", "setting": "[2]", "result": "inactive"}, {"measurement": "Potency", "setting": "[3]", "result": "inconclusive: 0.217 µM [falling, full curve]"}, {"measurement": "activation", "setting": "[4]", "result": "inconclusive: -1.26% [phenotype inactive]"}, {"measurement": "Potency", "setting": "[5]", "result": "inactive"}]}
{"compound": "O=C(O)c1ccccc1C(=O)Nc1ccc(S(=O)(=O)Nc2nccs2)cc1", "values": [{"measurement": "Potency", "setting": "[1]", "result": "inconclusive: 7.5 µM [rising, full curve, poor fit]"}]}
{"compound": "Clc1ccc(Cl)c(Cl)c1Cl", "values": [{"measurement": "Potency", "setting": "[1]", "result": "inactive"}]}
{"compound": "CCCCCCCCC", "values": [{"measurement": "Potency", "setting": "[1]", "result": "inconclusive: 15.4 µM [rising, single point]"}]}
{"compound": "O=[N+]([O-])c1nccn1CO[C@@H](CO)[C@H](O)CO", "values": [{"measurement": "Potency", "setting": "[1]", "result": "inactive"}, {"measurement": "Potency", "setting": "[6]", "result": "inconclusive: 10.7 µM [cytotoxic, single point]"}]}
{"compound": "CN(C)CCOC(c1ccc(Cl)cc1)c1ccccn1", "note": "(stereo not given)", "values": [{"measurement": "Potency", "setting": "[1]", "result": "inconclusive: 26.6 µM [cytotoxic, partial curve, poor fit]"}, {"measurement": "Potency", "setting": "[2]", "result": "inconclusive: 26.6 µM [inhibitor, partial curve]"}]}
{"compound": "CCOC(=O)[C@H](CCc1ccccc1)N[C@@H](C)C(=O)N1CCC[C@H]1C(=O)O", "values": [{"measurement": "Potency", "setting": "[1]", "result": "inconclusive: 0.841 µM [rising, full curve, poor fit]"}]}
{"compound": "COc1nc(C)nc(Cl)c1NC1=NCCN1", "values": [{"measurement": "Potency", "setting": "[1]", "result": "inactive"}, {"measurement": "Potency", "setting": "[2]", "result": "inactive"}, {"measurement": "Potency", "setting": "[4]", "result": "inactive"}, {"measurement": "Potency", "setting": "[7]", "result": "inconclusive: 5.69 µM [rising, partial curve, poor fit]"}]}
{"compound": "Cc1ccc2c(ccc3ccccc32)c1", "values": [{"measurement": "Potency", "setting": "[1]", "result": "inconclusive: 6.13 µM [rising, single point]"}, {"measurement": "activity, negative = inhibition", "setting": "[8]", "result": "inconclusive: -35.1% [at 79.1 µM]"}, {"measurement": "Potency", "setting": "[4]", "result": "inconclusive: 61.3 µM [activator, single point]"}, {"measurement": "Potency", "setting": "[9]", "result": "inconclusive: 17.3 µM [rising, partial curve]"}, {"measurement": "Potency", "setting": "[5]", "result": "inactive"}]}
{"compound": "Cc1ccccc1C(=O)O", "values": [{"measurement": "Potency", "setting": "[1]", "result": "inconclusive: 67.3 µM [rising, single point]"}, {"measurement": "Potency", "setting": "[2]", "result": "inactive"}, {"measurement": "Potency", "setting": "[5]", "result": "inconclusive: 23.9 µM [cytotoxic, partial curve, poor fit]"}]}
